In paper PMC4336329 (PLoS ONE, 2015):
Screen size: about 310,000 compounds; about 2,200 (0.71%) showed an effect of 50% or more. The effect is printed as a negative number. This is one part of the list.

What follows are compounds tested against human ether-à-go-go-related gene (hERG) potassium channel (human, UniProt Q12809) (assay: primary screen, population patch clamp on CHO cells stably expressing hERG).
Sequence of human ether-à-go-go-related gene (hERG) potassium channel (Q12809 whole entry, looked up): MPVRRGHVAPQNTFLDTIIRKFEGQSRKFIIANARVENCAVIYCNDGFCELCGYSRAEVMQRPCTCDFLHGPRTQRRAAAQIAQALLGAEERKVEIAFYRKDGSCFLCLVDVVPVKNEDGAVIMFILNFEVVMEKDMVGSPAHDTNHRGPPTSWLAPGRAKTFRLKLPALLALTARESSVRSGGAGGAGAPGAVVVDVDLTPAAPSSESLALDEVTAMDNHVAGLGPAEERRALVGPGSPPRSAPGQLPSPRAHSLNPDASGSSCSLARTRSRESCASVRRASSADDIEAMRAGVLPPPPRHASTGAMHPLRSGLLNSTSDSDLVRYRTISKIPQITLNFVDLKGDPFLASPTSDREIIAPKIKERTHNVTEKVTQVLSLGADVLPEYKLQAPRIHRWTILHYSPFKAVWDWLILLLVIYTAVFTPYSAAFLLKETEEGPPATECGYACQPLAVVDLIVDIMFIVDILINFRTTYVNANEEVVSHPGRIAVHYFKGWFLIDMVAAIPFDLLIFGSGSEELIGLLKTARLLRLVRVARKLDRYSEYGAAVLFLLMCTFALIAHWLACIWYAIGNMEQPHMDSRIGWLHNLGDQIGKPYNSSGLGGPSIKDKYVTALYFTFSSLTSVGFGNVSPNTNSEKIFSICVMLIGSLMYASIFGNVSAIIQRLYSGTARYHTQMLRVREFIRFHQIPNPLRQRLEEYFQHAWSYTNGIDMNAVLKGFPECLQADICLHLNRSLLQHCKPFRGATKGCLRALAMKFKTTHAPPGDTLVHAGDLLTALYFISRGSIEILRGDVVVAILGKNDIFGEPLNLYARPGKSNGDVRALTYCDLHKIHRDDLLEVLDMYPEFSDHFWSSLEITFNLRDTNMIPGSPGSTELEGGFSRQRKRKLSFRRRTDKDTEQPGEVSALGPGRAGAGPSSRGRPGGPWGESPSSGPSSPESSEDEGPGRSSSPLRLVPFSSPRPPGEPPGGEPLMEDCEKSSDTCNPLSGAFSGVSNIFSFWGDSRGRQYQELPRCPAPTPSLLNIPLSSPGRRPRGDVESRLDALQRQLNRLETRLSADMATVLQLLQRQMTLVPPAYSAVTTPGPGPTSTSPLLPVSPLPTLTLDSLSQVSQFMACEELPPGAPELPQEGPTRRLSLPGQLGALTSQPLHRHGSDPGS

Question: With `CCCCOc1ccc(C(=O)N/C(=C\c2cccc([N+](=O)[O-])c2)C(=O)OCCC)cc1` as the compound, how does the “hERG current change (%, negative = inhibition) at 1uM” value read?
Answer: 16.1%

Question: `O=C(N/N=C/c1ccccc1O)/C(=C/c1ccccc1)CCO` was tested. Which “hERG current change (%, negative = inhibition) at 1uM” value did it give?
Answer: -0.633%

Question: Which “hERG current change (%, negative = inhibition) at 1uM” value does the source give for `C=CCN1C(=O)CSC1=Nc1ccc(C(=O)O)cc1` here?
Answer: 13.4%

Question: `O=C(O)c1cc(-c2cc3ccccc3o2)nn1-c1ccccc1` was tested. Which “hERG current change (%, negative = inhibition) at 1uM” value did it give?
Answer: 12.9%

Question: With `COc1ccc2[nH]c(=O)c(-c3nnn(-c4ccc(Cl)c(Cl)c4)n3)cc2c1` as the compound, how does the “hERG current change (%, negative = inhibition) at 1uM” value read?
Answer: 14.6%

Question: `Cc1ccccc1CN(C)C(=O)CNC(=O)c1ccc2ccccc2c1` was tested. Which “hERG current change (%, negative = inhibition) at 1uM” value did it give?
Answer: 7.66%

Question: With `COc1ccc(C(=O)c2ccc(Br)cc2)cc1` as the compound, how does the “hERG current change (%, negative = inhibition) at 1uM” value read?
Answer: 5.65%

Question: Which “hERG current change (%, negative = inhibition) at 1uM” value does the source give for `Cc1nc(Oc2cccc(Cl)c2)c2oc3ccccc3c2n1` here?
Answer: 13.4%

Question: With `O=C(NCc1ccc(CNC(=O)c2ccco2)cc1)c1ccco1` as the compound, how does the “hERG current change (%, negative = inhibition) at 1uM” value read?
Answer: 16.1%

Question: For `CC(C)NC(=O)c1cnn2c1NC(c1cccs1)CC2C(F)(F)F` (stereo not shown), which “hERG current change (%, negative = inhibition) at 1uM” value is on record?
Answer: 12.7%

Question: How did the “hERG current change (%, negative = inhibition) at 1uM” value turn out when `O=C(OCc1ccco1)c1ccc(S(=O)(=O)N2CCCCC2)cc1` was run?
Answer: 5.76%

Question: With `COc1cc2c(cc1OC)C(COc1ccc(F)cc1)N(C(=O)c1ccco1)CC2` (stereo not shown) as the compound, how does the “hERG current change (%, negative = inhibition) at 1uM” value read?
Answer: -3.29%

Question: How did the “hERG current change (%, negative = inhibition) at 1uM” value turn out when `CC1CCN(C(=O)CSc2nnc(-c3cccs3)o2)CC1` was run?
Answer: 3.3%

Question: For `CN(C(=O)Nc1ccc(S(=O)(=O)N(C)C)cc1)C1CCCCC1`, which “hERG current change (%, negative = inhibition) at 1uM” value is on record?
Answer: 11.9%

Question: With `CCC(=O)c1ccc(OCC(=O)OCC(=O)NC2CCCC2)cc1` as the compound, how does the “hERG current change (%, negative = inhibition) at 1uM” value read?
Answer: 14.5%

Question: How did the “hERG current change (%, negative = inhibition) at 1uM” value turn out when `Cc1ccc(C)c(NC(=O)C2CC(O)CN2C(=O)OC(C)(C)C)c1` (stereo not shown) was run?
Answer: 17.2%

Question: How did the “hERG current change (%, negative = inhibition) at 1uM” value turn out when `Cc1ccc(-n2c(SCC(=O)NC3CCS(=O)(=O)C3)nc3ccccc3c2=O)cc1C` (stereo not shown) was run?
Answer: 4.65%

Question: For `CCN1CCN(c2ncnc3sc(C(=O)Nc4ccccc4F)c(C)c23)CC1`, which “hERG current change (%, negative = inhibition) at 1uM” value is on record?
Answer: -50.9%

Question: Which “hERG current change (%, negative = inhibition) at 1uM” value does the source give for `O=C(CSc1nnc2n1CCCN2)c1ccc([N+](=O)[O-])cc1` here?
Answer: 5.45%

Question: Which “hERG current change (%, negative = inhibition) at 1uM” value does the source give for `CS(=O)(=O)N1CCN(c2ccc(NC(=O)CSc3nnc(-c4ccco4)o3)cc2)CC1` here?
Answer: 24.4%

Question: Which “hERG current change (%, negative = inhibition) at 1uM” value does the source give for `CCN1C(=O)c2ccccc2Sc2ccc(C(=O)NCCCN(CC(C)C)CC(C)C)cc21` here?
Answer: 3.09%

Question: Which “hERG current change (%, negative = inhibition) at 1uM” value does the source give for `Cn1c(N)c(C(=O)Nc2ccccc2F)sc1=S` here?
Answer: 8.11%

Question: With `CC1(c2ccccc2Cl)NC(=O)N(CC(=O)N2CCN(S(=O)(=O)c3ccccc3)CC2)C1=O` (stereo not shown) as the compound, how does the “hERG current change (%, negative = inhibition) at 1uM” value read?
Answer: 10.9%

Question: How did the “hERG current change (%, negative = inhibition) at 1uM” value turn out when `COCC(C)n1c(SCC(=O)N2CCCCC2)nc2ccccc2c1=O` (stereo not shown) was run?
Answer: -2.67%

Question: Which “hERG current change (%, negative = inhibition) at 1uM” value does the source give for `COCC(C)n1c(C)cc(C(=O)CN2C(=O)NC3(CCCCC3C)C2=O)c1C` (stereo not shown) here?
Answer: 16.2%

Question: `O=C(O)C1CCCCC1C(=O)Nc1ccc(F)c(F)c1` (stereo not shown) was tested. Which “hERG current change (%, negative = inhibition) at 1uM” value did it give?
Answer: 5.66%

Question: For `Cc1ccccc1S(=O)(=O)Cc1ccc(C(=O)N2CCN(C3CCCCC3)CC2)o1`, which “hERG current change (%, negative = inhibition) at 1uM” value is on record?
Answer: -15.4%

Question: Which “hERG current change (%, negative = inhibition) at 1uM” value does the source give for `COc1ccc(OCC(=O)N2CCN(Cc3ccc(SC)cc3)CC2)cc1.O=C(O)C(=O)O` here?
Answer: -16.7%

Question: How did the “hERG current change (%, negative = inhibition) at 1uM” value turn out when `COc1ccc(C(=O)Nc2nccs2)cc1[N+](=O)[O-]` was run?
Answer: 20.8%

Question: `C[C@H](O)Cc1cn(-c2cc3cc(C#Cc4ccsc4)ccc3oc2=O)nn1` was tested. Which “hERG current change (%, negative = inhibition) at 1uM” value did it give?
Answer: 13.5%

Question: `Cc1ccc(OCC(=O)O/N=C(\N)Cc2cccs2)cc1C` was tested. Which “hERG current change (%, negative = inhibition) at 1uM” value did it give?
Answer: 10.4%

Question: With `CC1CN(CCCCOc2cccc(Oc3ccccc3)c2)CC(C)O1.O=C(O)C(=O)O` (stereo not shown) as the compound, how does the “hERG current change (%, negative = inhibition) at 1uM” value read?
Answer: -1.37%

Question: How did the “hERG current change (%, negative = inhibition) at 1uM” value turn out when `COc1ccc(CNS(=O)(=O)c2ccc(C3CNC(=O)C3)cc2)cc1` (stereo not shown) was run?
Answer: 0.734%

Question: `COc1cccc(CN(C)CC(=O)Nc2cccc3ccccc23)c1.O=C(O)C(=O)O` was tested. Which “hERG current change (%, negative = inhibition) at 1uM” value did it give?
Answer: 10.5%

Question: For `O=C(CCCOc1ccc(Cl)cc1Cl)NNC(=O)c1ccc(NC(=O)c2ccccc2)cc1`, which “hERG current change (%, negative = inhibition) at 1uM” value is on record?
Answer: 10.6%

Question: `COc1ccc([C@H]2CC(=O)C=C(c3cc(F)ccc3F)C2)cc1OC` was tested. Which “hERG current change (%, negative = inhibition) at 1uM” value did it give?
Answer: 11.4%

Question: With `COc1cc(C2NC(=O)NC(c3ccccc3)=C2C(C)=O)cc(Cl)c1OCC(=O)O` (stereo not shown) as the compound, how does the “hERG current change (%, negative = inhibition) at 1uM” value read?
Answer: 6.78%

Question: With `CCOc1ccc(C(=O)Nc2cccc([N+](=O)[O-])c2)cc1Br` as the compound, how does the “hERG current change (%, negative = inhibition) at 1uM” value read?
Answer: 2.1%

Question: How did the “hERG current change (%, negative = inhibition) at 1uM” value turn out when `O=C(N/N=C/c1ccccn1)c1cc(Br)ccc1O` was run?
Answer: 4.71%

Question: Which “hERG current change (%, negative = inhibition) at 1uM” value does the source give for `N#CC1(NC(=O)COC(=O)CCCN=C2NS(=O)(=O)c3ccccc32)CCCCC1` here?
Answer: 13.9%

Question: Which “hERG current change (%, negative = inhibition) at 1uM” value does the source give for `CCOC(=O)C1=C(COc2ccc(C)cc2)NC(=O)NC1c1cc(C)ccc1C` (stereo not shown) here?
Answer: 21.2%

Question: With `Cc1nc(NCCCn2ccnc2)c2oc3ccccc3c2n1.Cl` as the compound, how does the “hERG current change (%, negative = inhibition) at 1uM” value read?
Answer: -47.5%

Question: With `CSc1nc(C2CC2)cc(-c2cccs2)c1C#N` as the compound, how does the “hERG current change (%, negative = inhibition) at 1uM” value read?
Answer: 12.2%

Question: Which “hERG current change (%, negative = inhibition) at 1uM” value does the source give for `O=C(/C=C/c1cccc([N+](=O)[O-])c1)c1ccco1` here?
Answer: 7.19%

Question: How did the “hERG current change (%, negative = inhibition) at 1uM” value turn out when `COc1ccc(-n2cc(-c3ccccc3)c3c(N4CCN(CCO)CC4)ncnc32)cc1` was run?
Answer: -4.15%

Question: How did the “hERG current change (%, negative = inhibition) at 1uM” value turn out when `Cc1ccc(S(=O)(=O)Nc2cccc(-c3ccc(N4CCCCCC4)nn3)c2)cc1C` was run?
Answer: 16.1%

Question: With `O=C(CSc1nc(O)cc(=O)n1-c1ccc(Cl)c(Cl)c1)Nc1ccc(Cl)cc1Cl` as the compound, how does the “hERG current change (%, negative = inhibition) at 1uM” value read?
Answer: 11.3%

Question: Which “hERG current change (%, negative = inhibition) at 1uM” value does the source give for `O=C(Nc1ccccc1-c1ccccc1)c1ccc(NC(=O)c2ccco2)cc1` here?
Answer: 6.82%

Question: Which “hERG current change (%, negative = inhibition) at 1uM” value does the source give for `COc1cc2c(cc1OC)-c1cc3ccc(OC)c(OC)c3c[n+]1CC2.[Cl-]` here?
Answer: 11.5%

Question: With `Cc1nn(C)cc1CN(C)C(=O)CC12CC3CC(CC(C3)C1)C2` as the compound, how does the “hERG current change (%, negative = inhibition) at 1uM” value read?
Answer: 13.1%

Question: How did the “hERG current change (%, negative = inhibition) at 1uM” value turn out when `CCN(CC)CCCNC(=O)c1ccccc1NC(=O)C1=CSCCO1` was run?
Answer: 5.12%

Question: How did the “hERG current change (%, negative = inhibition) at 1uM” value turn out when `COc1ccc(S(=O)(=O)N2CCOCC2)cc1NC(=O)CSc1n[nH]c(=O)n1C1CC1` was run?
Answer: 9.1%

Question: Which “hERG current change (%, negative = inhibition) at 1uM” value does the source give for `O=C(c1cccs1)N1CCN(c2ncccn2)CC1` here?
Answer: 2.95%

Question: With `CCN(CC(=O)NC(C)C)C(=O)C(CCSC)NC(=O)c1cccc(C)c1` (stereo not shown) as the compound, how does the “hERG current change (%, negative = inhibition) at 1uM” value read?
Answer: 8.43%

Question: For `CC(Cl)C(=O)Nc1cc(C(F)(F)F)ccc1N1CCOCC1` (stereo not shown), which “hERG current change (%, negative = inhibition) at 1uM” value is on record?
Answer: 4.37%
